Values marked as one replicate rest on one cluster of the flow cell; about a third of the high ones do not repeat.
These sequences were tested on ATP (assay: switch fluorescence ratio, 500 uM ATP over buffer (Cy3 cluster intensity, sum of 5 cycles each) (fold (ratio)); higher = stronger signal-on switching upon ATP binding; sequences stand for … in TCGTCGGCAGCGTCAGATGTGTATAAGAGACAGTTTTTTTTTTTTTTTTTTTTTTTTT…TC). Conditions: aptamer strand: ATP DNA aptamer (quencher-CACCTGGGGGAGTATTGCGGAGGAAGG + anchor), 100 nM annealed; ATP concentration: 500 uM; one replicate.
In short: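 The fluorescence ratio divides summed target-cycle Cy3 intensity by summed buffer-cycle Cy3 intensity for each cluster and is averaged per switch-domain sequence. Cy3-labelled switching-strand clusters on a modified Illumina MiSeq flow-cell were annealed to 100 nM quencher-labelled ATP aptamer, then imaged in selection buffer and again after 15 min with 500 uM ATP at 22 °C. Five such cycles were run, with NaOH stripping and re-annealing between them, and clusters outside 100-1000 RFU were excluded.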
Sequence AACTATAGTC has a switch fluorescence ratio of 0.983.
In the case of AACTATATGA, the switch fluorescence ratio is reported as 1.03.
Sequence AACTATCCT has a switch fluorescence ratio of 0.996.
For AACTATGGGA, the switch fluorescence ratio was 1.
AACTCCGCTT gave a switch fluorescence ratio of 4.95.
Work on AACTCTGACG yielded a switch fluorescence ratio of 1.02.
AACTGACTT was tested, and the switch fluorescence ratio was 1.11.
Sequence AACTGATAAT has a switch fluorescence ratio of 1.02.
Sequence AACTGATGTA has a switch fluorescence ratio of 1.
In the case of AACTGATTTT, the switch fluorescence ratio is reported as 1.03.
In the case of AACTGCCCAT, the switch fluorescence ratio is reported as 1.04.
AACTGCCCCA was tested, and the switch fluorescence ratio was 0.98.
With AACTGGAATT the switch fluorescence ratio was 1.01.
Work on AACTGGAGCA yielded a switch fluorescence ratio of 1.22.
For AACTGGGCGA, the switch fluorescence ratio was 1.01.
AACTGTACTG gave a switch fluorescence ratio of 1.47.
Work on AACTGTGTTA yielded a switch fluorescence ratio of 1.
AACTGTTCGG showed a switch fluorescence ratio of 1.01.
AACTTAGGGC was tested, and the switch fluorescence ratio was 1.07.
For AACTTAGGGT, the switch fluorescence ratio was 0.939.
Work on AACTTATCCA yielded a switch fluorescence ratio of 1.05.
For AACTTCAGCC, the switch fluorescence ratio was 1.69.
AACTTCGTTG was tested, and the switch fluorescence ratio was 0.997.
Sequence AACTTGGCTC has a switch fluorescence ratio of 1.81.
Work on AACTTTGAGC yielded a switch fluorescence ratio of 1.04.
With AACTTTGGGA the switch fluorescence ratio was 1.01.
AACTTTTGCA showed a switch fluorescence ratio of 1.04.
AAGAAAATAG was tested, and the switch fluorescence ratio was 2.11.
AAGAAGCCAC showed a switch fluorescence ratio of 1.05.
Sequence AAGAATGGTG has a switch fluorescence ratio of 1.02.
With AAGAATTAGG the switch fluorescence ratio was 1.
With AAGACACAAG the switch fluorescence ratio was 1.01.
In the case of AAGACCCTTG, the switch fluorescence ratio is reported as 0.988.
AAGACCGCCG showed a switch fluorescence ratio of 1.09.
AAGACCGGGT was tested, and the switch fluorescence ratio was 1.05.
AAGACCTGTA showed a switch fluorescence ratio of 1.11.
AAGACGCTAT gave a switch fluorescence ratio of 1.23.
In the case of AAGACGTAGA, the switch fluorescence ratio is reported as 0.991.
AAGACTAACC showed a switch fluorescence ratio of 1.07.
In the case of AAGACTCAT, the switch fluorescence ratio is reported as 1.04.
With AAGACTGA the switch fluorescence ratio was 1.06.
AAGAGCACTA was tested, and the switch fluorescence ratio was 1.02.
For AAGAGCCATT, the switch fluorescence ratio was 1.
AAGAGCCGAG showed a switch fluorescence ratio of 1.01.
Work on AAGAGCTCTG yielded a switch fluorescence ratio of 1.05.
AAGAGGTAGC gave a switch fluorescence ratio of 1.22.
AAGAGTAAGA was tested, and the switch fluorescence ratio was 1.01.
For AAGAGTACTT, the switch fluorescence ratio was 1.04.
AAGAGTGGGC gave a switch fluorescence ratio of 1.03.
In the case of AAGATAAATG, the switch fluorescence ratio is reported as 0.995.
With AAGATACGGG the switch fluorescence ratio was 1.
For AAGATCAAAT, the switch fluorescence ratio was 1.03.
Sequence AAGATCGACC has a switch fluorescence ratio of 1.01.
AAGATCTATG gave a switch fluorescence ratio of 0.979.
Work on AAGATCTGGA yielded a switch fluorescence ratio of 0.983.
AAGATGCCAT was tested, and the switch fluorescence ratio was 1.01.
In the case of AAGATGGATC, the switch fluorescence ratio is reported as 1.01.
AAGATGGTCC showed a switch fluorescence ratio of 1.03.
In the case of AAGATGGTGC, the switch fluorescence ratio is reported as 1.1.
In the case of AAGATTCCTA, the switch fluorescence ratio is reported as 1.
AAGATTCTGT showed a switch fluorescence ratio of 1.
For AAGCAAGTTG, the switch fluorescence ratio was 1.13.
With AAGCAATTTT the switch fluorescence ratio was 1.04.
Work on AAGCACAGGC yielded a switch fluorescence ratio of 1.1.
For AAGCAGAAAC, the switch fluorescence ratio was 1.22.
AAGCAGCCAC gave a switch fluorescence ratio of 1.2.
In the case of AAGCAGTATG, the switch fluorescence ratio is reported as 0.999.
AAGCATACAT was tested, and the switch fluorescence ratio was 1.03.
Work on AAGCATATCT yielded a switch fluorescence ratio of 1.13.
For AAGCATCTGT, the switch fluorescence ratio was 1.01.
With AAGCCACACT the switch fluorescence ratio was 1.09.
AAGCCCGGAT gave a switch fluorescence ratio of 1.04.
In the case of AAGCCGAGTG, the switch fluorescence ratio is reported as 0.993.
AAGCCTTCTG gave a switch fluorescence ratio of 1.04.
For AAGCGCCTGG, the switch fluorescence ratio was 0.99.
Work on AAGCGCTCAG yielded a switch fluorescence ratio of 1.03.
Work on AAGCGCTTTG yielded a switch fluorescence ratio of 1.01.
Sequence AAGCGGACTT has a switch fluorescence ratio of 1.04.
Sequence AAGCGGAGTA has a switch fluorescence ratio of 0.954.
AAGCGGATCA gave a switch fluorescence ratio of 1.02.
AAGCGGATTG was tested, and the switch fluorescence ratio was 1.
AAGCGGGTAC gave a switch fluorescence ratio of 1.16.
For AAGCGTGGCT, the switch fluorescence ratio was 0.974.
Work on AAGCGTTCGG yielded a switch fluorescence ratio of 1.03.
For AAGCGTTTAG, the switch fluorescence ratio was 0.994.
AAGCTAAAGC gave a switch fluorescence ratio of 0.96.
AAGCTATCT showed a switch fluorescence ratio of 1.01.
With AAGCTCTTCA the switch fluorescence ratio was 1.03.
Sequence AAGCTGGAAG has a switch fluorescence ratio of 0.979.
AAGCTGTTTG was tested, and the switch fluorescence ratio was 0.981.
Sequence AAGCTTAGTT has a switch fluorescence ratio of 0.994.
AAGCTTGCT gave a switch fluorescence ratio of 0.995.
For AAGGAAAGCA, the switch fluorescence ratio was 0.996.
For AAGGAACTAT, the switch fluorescence ratio was 1.
In the case of AAGGAATGGC, the switch fluorescence ratio is reported as 1.04.
Sequence AAGGAGATAG has a switch fluorescence ratio of 1.01.
AAGGAGGATA was tested, and the switch fluorescence ratio was 1.
AAGGAGTC was tested, and the switch fluorescence ratio was 0.98.
Sequence AAGGAGTCCT has a switch fluorescence ratio of 1.02.
AAGGATACGC gave a switch fluorescence ratio of 0.971.
For AAGGATGATC, the switch fluorescence ratio was 0.997.
With AAGGCAATGA the switch fluorescence ratio was 1.8.
Work on AAGGCATGTA yielded a switch fluorescence ratio of 0.965.
For AAGGCCAGAC, the switch fluorescence ratio was 1.06.
With AAGGCCCTCT the switch fluorescence ratio was 0.932.
In the case of AAGGCCTACA, the switch fluorescence ratio is reported as 1.01.
With AAGGCCTGGT the switch fluorescence ratio was 1.
Work on AAGGCGGGT yielded a switch fluorescence ratio of 1.02.
With AAGGCTTCAT the switch fluorescence ratio was 1.
AAGGGAAAG gave a switch fluorescence ratio of 1.02.
For AAGGGAAGTT, the switch fluorescence ratio was 1.01.
Work on AAGGGAATTG yielded a switch fluorescence ratio of 0.991.
With AAGGGAGCC the switch fluorescence ratio was 0.961.
With AAGGGCAACT the switch fluorescence ratio was 0.996.
Sequence AAGGGCAAGT has a switch fluorescence ratio of 1.04.
With AAGGGCGCCT the switch fluorescence ratio was 0.992.
With AAGGGCTAGT the switch fluorescence ratio was 0.958.
Sequence AAGGGCTT has a switch fluorescence ratio of 1.02.
In the case of AAGGGGGCT, the switch fluorescence ratio is reported as 1.01.
AAGGGGTGGC was tested, and the switch fluorescence ratio was 0.946.
Work on AAGGGTGCGC yielded a switch fluorescence ratio of 1.02.
With AAGGGTTGAC the switch fluorescence ratio was 1.06.
Work on AAGGTACGCA yielded a switch fluorescence ratio of 1.04.
In the case of AAGGTACTAG, the switch fluorescence ratio is reported as 1.07.
AAGGTAGTTC gave a switch fluorescence ratio of 1.04.
With AAGGTCAGAT the switch fluorescence ratio was 1.03.
AAGGTCAGG was tested, and the switch fluorescence ratio was 1.01.
AAGGTCTGGA showed a switch fluorescence ratio of 0.916.
For AAGGTGACAG, the switch fluorescence ratio was 0.979.
AAGGTTAATC showed a switch fluorescence ratio of 0.964.
For AAGGTTGTCC, the switch fluorescence ratio was 1.02.
AAGTAACAAT gave a switch fluorescence ratio of 0.991.
AAGTAACCAC gave a switch fluorescence ratio of 1.07.
AAGTAAGTAA was tested, and the switch fluorescence ratio was 0.932.
With AAGTAAGTTA the switch fluorescence ratio was 0.983.
Sequence AAGTAATGAT has a switch fluorescence ratio of 0.989.
AAGTAATGGC gave a switch fluorescence ratio of 1.03.
Sequence AAGTACCAGT has a switch fluorescence ratio of 1.02.
AAGTACCGGG was tested, and the switch fluorescence ratio was 1.11.
In the case of AAGTACGCAT, the switch fluorescence ratio is reported as 1.45.
With AAGTAGAACA the switch fluorescence ratio was 0.994.
With AAGTAGAGGG the switch fluorescence ratio was 0.942.
Sequence AAGTAGCAGG has a switch fluorescence ratio of 0.993.
In the case of AAGTAGCTTG, the switch fluorescence ratio is reported as 0.963.
With AAGTATACGT the switch fluorescence ratio was 1.03.
With AAGTATAGCG the switch fluorescence ratio was 0.907.
For AAGTATCGTC, the switch fluorescence ratio was 0.957.
AAGTCAATTT gave a switch fluorescence ratio of 0.967.
Sequence AAGTCGAAGA has a switch fluorescence ratio of 1.01.
For AAGTGACGAA, the switch fluorescence ratio was 0.996.
In the case of AAGTGATACA, the switch fluorescence ratio is reported as 0.967.
With AAGTGCAAC the switch fluorescence ratio was 0.996.
With AAGTGCAAGT the switch fluorescence ratio was 1.01.
AAGTGCGTTG was tested, and the switch fluorescence ratio was 0.969.
Work on AAGTGGCAGG yielded a switch fluorescence ratio of 1.01.
In the case of AAGTGTAAAT, the switch fluorescence ratio is reported as 1.03.
With AAGTGTACTT the switch fluorescence ratio was 1.02.
In the case of AAGTGTGGCC, the switch fluorescence ratio is reported as 0.984.
AAGTGTTAAC showed a switch fluorescence ratio of 1.02.
Sequence AAGTTAAGCG has a switch fluorescence ratio of 0.955.
With AAGTTACTCT the switch fluorescence ratio was 1.08.
Sequence AAGTTAGAT has a switch fluorescence ratio of 0.995.
For AAGTTCACTG, the switch fluorescence ratio was 1.02.
AAGTTCCGCG was tested, and the switch fluorescence ratio was 1.12.
With AAGTTCTAGA the switch fluorescence ratio was 0.976.
In the case of AAGTTCTGCC, the switch fluorescence ratio is reported as 1.
AAGTTGGGTC showed a switch fluorescence ratio of 0.996.
AAGTTGGTT was tested, and the switch fluorescence ratio was 0.973.
With AAGTTTAGCC the switch fluorescence ratio was 1.03.
In the case of AAGTTTTTAG, the switch fluorescence ratio is reported as 0.995.
Work on AATAAAACAA yielded a switch fluorescence ratio of 0.987.
For AATAAAACAC, the switch fluorescence ratio was 1.03.
AATAAACAGT showed a switch fluorescence ratio of 0.986.
In the case of AATAACTGAG, the switch fluorescence ratio is reported as 1.1.
Work on AATAAGAGCC yielded a switch fluorescence ratio of 1.02.
For AATAAGATCA, the switch fluorescence ratio was 1.
AATAAGCGAT was tested, and the switch fluorescence ratio was 1.03.
AATAATAGTC was tested, and the switch fluorescence ratio was 0.968.
For AATAATCGTA, the switch fluorescence ratio was 0.95.
AATACACGGA gave a switch fluorescence ratio of 1.04.
Work on AATACATAA yielded a switch fluorescence ratio of 1.06.
For AATACATGAC, the switch fluorescence ratio was 1.19.
Work on AATACGCTGG yielded a switch fluorescence ratio of 0.999.
Work on AATACGGGAA yielded a switch fluorescence ratio of 1.03.
AATACGTT showed a switch fluorescence ratio of 1.03.
In the case of AATACTGGGC, the switch fluorescence ratio is reported as 1.01.
Sequence AATACTTATT has a switch fluorescence ratio of 1.01.
Work on AATAGATTGG yielded a switch fluorescence ratio of 1.02.
In the case of AATAGCCAGC, the switch fluorescence ratio is reported as 1.01.
AATAGCGCTC was tested, and the switch fluorescence ratio was 0.979.
AATAGGCCTG showed a switch fluorescence ratio of 0.951.
AATAGGCGAG showed a switch fluorescence ratio of 1.01.
AATAGGGACT was tested, and the switch fluorescence ratio was 0.991.
With AATAGGTGCG the switch fluorescence ratio was 1.
AATAGTTGTA gave a switch fluorescence ratio of 1.12.
In the case of AATAGTTTGG, the switch fluorescence ratio is reported as 1.
Sequence AATAGTTTT has a switch fluorescence ratio of 0.968.
For AATATAATTA, the switch fluorescence ratio was 0.985.
For AATATATCTG, the switch fluorescence ratio was 1.07.
AATATCAACT gave a switch fluorescence ratio of 0.986.
AATATCCACC gave a switch fluorescence ratio of 1.07.

— the supplement of paper PMC10126150
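Also: ATP exposure 15 min at 22 °C before imaging.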
